# Source: the supplement of paper PMC3334620
# Whole data set: some 33,000 sequences, median “E-score (-0.5 to 0.5)” near -0.035, cut for the highest 2% near 0.34. The list shows a part of the results.
# Molecular target: T1, Mot3 (UniProt P54785)
# T1 sequence: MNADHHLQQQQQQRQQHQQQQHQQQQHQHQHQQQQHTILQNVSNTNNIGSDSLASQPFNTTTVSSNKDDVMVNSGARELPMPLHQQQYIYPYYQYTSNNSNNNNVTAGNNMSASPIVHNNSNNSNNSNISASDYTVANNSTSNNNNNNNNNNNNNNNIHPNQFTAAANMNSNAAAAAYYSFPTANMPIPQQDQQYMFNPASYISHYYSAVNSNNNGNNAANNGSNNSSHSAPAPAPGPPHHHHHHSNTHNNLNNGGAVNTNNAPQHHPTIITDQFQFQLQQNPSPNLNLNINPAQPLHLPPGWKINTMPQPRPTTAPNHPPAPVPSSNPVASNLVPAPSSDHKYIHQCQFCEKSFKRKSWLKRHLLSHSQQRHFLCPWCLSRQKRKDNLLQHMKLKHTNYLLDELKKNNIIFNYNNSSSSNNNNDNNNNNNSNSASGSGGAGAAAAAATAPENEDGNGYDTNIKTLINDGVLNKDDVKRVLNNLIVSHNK
# Test: PBM E-score (8-mer binding enrichment) (E-score (-0.5 to 0.5)); higher = stronger / more preferred TF binding; most listed sequences are background and not binding sites
# Details: protein concentration: 200 nM; construct: GST-full length
# How it was run: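 Universal all-10-mer Agilent arrays, double-stranded by primer extension on fresh or once-stripped slides, were probed with about 100-200 nM GST-tagged yeast transcription factors made by PURExpress. Fluorescent anti-GST detected bound protein, and masliner normalised the scans. E-scores from the Universal PBM Analysis Suite were given to each ungapped eight-base word pooled with its reverse complement.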
row,Sequence,PBM E-score
1,TAATGAAA,0.0802
2,ATGGTGGG,-0.235
3,CGCGCAGA,-0.159
4,ATGGAGCA,-0.0566
5,GCCCTACC,-0.00913
6,CCGCCGTC,-0.195
7,GCCTACCC,0.199
8,ATCGGAAA,0.0192
9,GTTCAAGA,-0.19
10,GCGGCATA,0.073
11,AACTCCTC,-0.153
12,AACGTGCT,0.141
13,AAATAATA,0.218
14,GCACCCGA,-0.232
15,AGACTTAT,0.0426
16,CAGTTATG,-0.0206
17,AGGCGTCG,0.103
18,CCCCGCCA,-0.205
19,AGTATGCG,-0.088
20,AGCAGGGG,-0.297
21,ATGGTGCC,0.237
22,CGGCAGAC,-0.337
23,ACCAACGG,-0.137
24,AGCGGTTG,-0.0957
25,TCGTGAAA,-0.125

row,Sequence,PBM E-score
1,TAAATACA,0.366
2,GTGACAAA,0.0421
3,GGACCCGA,-0.265
4,AACCTTAG,0.0134
5,AACTCTCG,-0.0358
6,GGACTTTA,-0.121
7,TGTGCTAA,0.171
8,GCACTAAC,-0.0489
9,GAAAGGGA,0.0421
10,AGCGGCTG,-0.274
11,CACAGTCC,-0.0652
12,AATTCAGC,-0.108
13,ATCCTGGC,-0.117
14,AATTTTGT,0.122
15,AGCACGAC,-0.0207
16,CTGTGCTC,0.0292
17,GAACTCAA,-0.111
18,GACGAGAC,0.147
19,CGCTCTAA,-0.131
20,AATGTCAT,0.0778
21,AAAAGACT,-0.126
22,TATGTTAA,0.396
23,GGCCCTGA,-0.231
24,CGCGACTA,0.141
25,CAGCCGGG,-0.136

row,Sequence,PBM E-score
1,GTGACGGA,-0.0999
2,ATACAGCA,0.135
3,TACTTGGA,0.177
4,CAAGGAAA,0.317
5,GGTGAAGA,-0.16
6,ACTAGCGG,-0.0418
7,ATCGGACG,-0.172
8,ATGCTCCC,-0.214
9,GTTTTCCA,0.144
10,TAGAGTCA,0.0332
11,ATTAGTTC,-0.0245
12,ACCTTTCC,0.0757
13,CCCACTCG,-0.185
14,CGAGGGGC,-0.254
15,CATATATG,0.152
16,CGCAGGAC,-0.0456
17,CAAACTCA,0.145
18,ACCGTCAG,-0.337
19,CGCCAATC,-0.166
20,TAGGCTGA,-0.144
21,TAGGGCCA,-0.299
22,AAAAGTTG,0.0843
23,AATCTAGT,-0.024
24,AGGGGGAA,-0.17
25,TCAGAAAA,-0.0532

row,Sequence,PBM E-score
1,CCCCTCTA,-0.0583
2,CCTGCTGA,0.231
3,AAGGTCAC,0.0545
4,AACTACAG,0.108
5,GAGCAAGC,-0.221
6,ACTTCTTC,0.0443
7,AGCGGGCC,-0.18
8,CGCCCTCC,-0.296
9,GCCAGGGC,-0.165
10,AAGGACTA,-0.00807
11,CTCTGCCC,-0.025
12,TACGGTGA,0.0714
13,CACCAGGA,-0.104
14,CTCAGCAG,-0.113
15,CGTTCACA,0.123
16,CCGAACAA,0.0981
17,AAGGTTGA,0.0788
18,CGGATGAC,-0.066
19,CTCTGAAC,-0.171
20,ATTCAGGG,-0.0077
21,CGCATTGA,0.0524
22,GACCCTAA,-0.333
23,GAGTTTAA,0.052
24,CGTATTAC,0.294
25,CGCTTGAC,0.009

row,Sequence,PBM E-score
1,ACAAATAA,0.187
2,CGCTGGGC,-0.171
3,TACGCACA,0.242
4,CAGTCGGG,0.0768
5,CCACTCGC,-0.171
6,ATGCAGGG,-0.153
7,AAAGCTAA,0.14
8,GGACCTGA,-0.179
9,AGGTCCGC,-0.307
10,CGATCGCA,-0.0487
11,TCTCAGCA,-0.0977
12,ATATCCGG,-0.00421
13,CCTGGTTA,0.0286
14,ACAAATTG,0.0261
15,TGGCCACA,-0.096
16,GTACGCGA,0.237
17,GCTATCAC,-0.0898
18,ACGTCCTA,-0.0361
19,GAACGCAC,0.154
20,CAAAGACA,0.162
21,ATCCGTTA,0.0585
22,AGTAATCA,0.104
23,AGGATGCA,-0.0683
24,CGACCGAC,0.0437
25,TGGGCGAA,-0.18

row,Sequence,PBM E-score
1,GAACCGGA,-0.0781
2,TATTCGGA,0.0326
3,ATTAGCGC,-0.0551
4,ACCCGCCT,-0.118
5,AACAGTTG,-0.0428
6,AAACGTAG,0.15
7,AAGGACTC,-0.217
8,ACGGCATA,0.0107
9,ACCTTTTG,0.123
10,CTCCAGTC,-0.336
11,AGTGAGGG,-0.265
12,CGGAAACG,0.00102
13,TCGAGCCA,-0.0914
14,ATCCACTC,-0.0433
15,CTACAAAC,0.174
16,CCTCAACG,-0.174
17,GACCCCCA,-0.371
18,ATCATTCC,-0.194
19,CTTCGTAC,0.0353
20,ACCTAACT,-0.0441
21,AGGTGAAC,-0.0992
22,GATGTGGA,-0.133
23,GAATCCGA,-0.0795
24,AACTTTTG,0.185
25,GGCTATAC,-0.0842

row,Sequence,PBM E-score
1,CAGCATTA,0.0139
2,AAGCACAA,0.188
3,CTAGCCAG,-0.0919
4,AATCTCGC,0.0121
5,GCAATTAA,0.0812
6,AAGGAGAG,-0.171
7,CTATACTA,0.0877
8,AGACCAAA,-0.193
9,CAAACATA,0.111
10,ATGTTCGG,-0.0775
11,ACGTGATC,0.0294
12,TGACGTCA,-0.00588
13,AAACCATG,-0.04
14,GTCCTAGA,-0.0721
15,CTGCTGAC,0.0167
16,CTAATCTA,0.0529
17,GAACACGC,0.2
18,AGAACAGC,0.108
19,ATCATAGC,0.0333
20,GAACTACC,0.0334
21,AAGTGCCC,-0.177
22,CTATGGGA,-0.187
